Tests used:
Set-up in all cases: species or system human
[1] = tested on: Cell-associated proTGFβ1; assay: Octet binding, cell average of hGARP and hLRRC33 complexes; conditions: average KD of (E) and (F), read-out: (G) Cell AVRG
From the text: (§1) Column (A) of the table provides monoclonal antibodies with discrete amino acid sequences. […] Columns (B), (C), (E) and (F) provide affinities of each of the listed antibodies, measured in KD, towards the antigen complex as indicated, respectively. […] Average KD values calculated from (B) and (C) are shown in the corresponding column (D), which collectively represents affinities of the antibodies to ECM- or matrix-associated proTGFβ1 complexes. Similarly, Average KD values calculated from (E) and (F) are shown in the corresponding column (G), which collectively represents affinities of the antibodies to cell-surface or cell-associated proTGF complexes. Finally, relative ratios between the average KD values from columns (D) and (G) are expressed as fold bias” in column (H). Thus, the greater the numerical of column (H) is, the greater bias exists for the particular antibody, when comparing binding preferences of the antibody for matrix-associated complexes to cell-surface complexes. This is one way of quantitatively representing and comparing inherent bias of antibodies to their target complexes. Such analyses may be useful in guiding the selection process for a candidate antibody for particular therapeutic use.

[2] = biological target: Matrix-associated proTGFβ1; assay: Octet binding, ECM average of hLTBP1 and hLTBP3 complexes; conditions: average KD of (B) and (C), read-out: (D) ECM AVRG
From the text: as §1

[3] = tested on: Matrix-associated proTGFβ1 vs Cell-associated proTGFβ1; assay: Octet binding, matrix vs cell bias (G/D); conditions: ratio of cell average KD to ECM average KD
From the text: as §1

[4] = tested on: Matrix-associated proTGFβ1 vs Cell-associated proTGFβ1; assay: MSD-SET binding, matrix vs cell bias (G/D); conditions: ratio of cell average KD to ECM average KD
From the text: (§2) Column (A) of the table provides monoclonal antibodies with discrete amino acid sequences. […] Columns (B), (C), (E) and (F) provide affinities of each of the listed antibodies, measured in KD, towards the antigen complex as indicated, respectively. […] Similarly, Average KD values calculated from (E) and (F) are shown in the corresponding column (G), which collectively represents affinities of the antibodies to cell-surface or cell-associated proTGF complexes. Finally, relative ratios between the average KD values from columns (D) and (G) are expressed as fold bias” in column (H). Thus, the greater the numerical of column (H) is, the greater bias exists for the particular antibody, when comparing binding preferences of the antibody for matrix-associated complexes to cell-surface complexes. This is one way of quantitatively representing and comparing inherent bias of antibodies to their target complexes. […] Select antibodies of the present disclosure, as measured by MSD-SET, show context-bias (i.e., greater than five-fold bias) or unbias (i.e., less than 5-fold bias) toward matrix-associated complexes over cell-associated complexes. […] In addition, the recombinant antibodies used in the Octet assay were expressed as IgG1 antibodies in yeast, while the antibodies used in the MSD assay were expressed as IgG4 antibodies in mammalian cells.

[5] = biological target: Matrix-associated proTGFβ1; assay: MSD-SET binding, ECM average of hLTBP1 and hLTBP3 complexes; conditions: average KD of (B) and (C), read-out: (D) ECM AVRG
From the text: as §2

B1: Ab8: monoclonal antibody binding proTGFβ1 complexes; VH SEQ ID NO: 212, VL SEQ ID NO: 211 (antibody, V domains shown)
VH: QVQLVESGGGVVQPGRSLRLSCAASGFTFSDYAMVWVRQAPGKGLEWVSAISGSGFTTYYADSVKGRFTISRDNSKNTLYLQMNSLRAEDTAVYYCARVSSGHWDFDYWGQGTLVTVSS
VL: [… about 100 residues …]FTFGQGTKVEIK
B1 was tested, and the Kd [1] was 12.7 nM, the Kd [2] was 0.316 nM and the “(H) G/D (fold bias)” value [3] was 40.25 fold.

B2: Ab9: monoclonal antibody binding proTGFβ1 complexes; VH SEQ ID NO: 214, VL SEQ ID NO: 211 (antibody, V domains shown)
VH: QVQLVESGGGVVQPGGSLRLSCAASGFTFSSFAMTWVRQAPGKGLEWVSAISGSGAATYFADSVKGRFTISRDNSKNTLYLQMNSLRAEDTAVYYCARVSSGHWDFDYWGQGTLVTVSS
VL: [… about 100 residues …]FTFGQGTKVEIK
B2 was tested, and the Kd [1] was 8.4 nM, the Kd [2] was 0.316 nM and the “(H) G/D (fold bias)” value [3] was 26.58 fold.

B3: Ab35: monoclonal antibody binding proTGFβ1 complexes; VH SEQ ID NO: 238, VL SEQ ID NO: 211 (antibody, V domains shown)
VH: EVQLLESGGGLVQPGGSLRLSCAASGFTFRNYAMSWVRQAPGKGLEWVSSISGSGGATYYADSVKGRFTISRDNSKNTLYLQMNSLRAEDTAVYYCARVSSYLWDFDYWGQGTLVTVSS
VL: [… about 100 residues …]FTFGQGTKVEIK
For B3, the “(H) G/D (fold bias)” value [4] was 4.15 fold, the Kd [5] was 0.265 nM and the Kd [1] was 3.96 nM. The Kd [2] was 0.164 nM and the “(H) G/D (fold bias)” value [3] was 24.13 fold.

B4: Ab36: monoclonal antibody binding proTGFβ1 complexes; VH SEQ ID NO: 240, VL SEQ ID NO: 211 (antibody, V domains shown)
VH: EVQLLESGGGLVQPGGSLRLSCAASGFTFRNYAMSWVRQAPGKGLEWVSSISGSGGATYYADSVKGRFTISRDNSKNTLYLQMNSLRAEDTAVYYCARVSSGHWDLDYWGQGTLVTVSS
VL: [… about 100 residues …]FTFGQGTKVEIK
For B4, the Kd [1] was 7.11 nM, the Kd [2] was 0.384 nM and the “(H) G/D (fold bias)” value [3] was 18.5156 fold.

B5: Ab7: monoclonal antibody binding proTGFβ1 complexes; VH SEQ ID NO: 210, VL SEQ ID NO: 211 (antibody, V domains shown)
VH: EVQLLESGGGLVQPGGSLRLSCAASGFTFADYAMTWVRQAPGKGLEWVSAISGTGAHTYYADSVKGRFTISRDNSKNTLYLQMNSLRAEDTAVYYCARVSSGHWDFDYWGQGTLVTVSS
VL: [… about 100 residues …]FTFGQGTKVEIK
For B5, the Kd [1] was 14.2 nM, the Kd [2] was 0.452 nM and the “(H) G/D (fold bias)” value [3] was 31.3 fold.
